From ChEMBL document CHEMBL1201862, “PubChem BioAssay data set” (2004)
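Cultured in 96-well plates, cells were exposed to test compound for 48 hours across five concentrations. GI50 = concentration required for 50% inhibition of growth.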 The source made the active and inactive calls. Cut-off read from the data, not from the text of the source: active = GI50 up to about 1.1 µM and inactive = higher.

What follows are molecules tested on NCI-H322M (assay: NCI-60 cell line screen, 48 h).
In the case of `O=C(O)c1ccccc1-c1ccccc1C(=O)Nc1ccc2c(c1)nc(O)c1ccccc12`, the GI50 is reported as inactive: > 100 µM. In the case of `CCOC(=O)C(NC(C)=O)(Nc1ccc(S(N)(=O)=O)cc1)C(F)(F)F` (centres undefined), the GI50 is reported as inactive: > 100 µM. `CNc1ncnc(Sc2nc(N)nc3[nH]cnc23)c1[N+](=O)[O-]` was tested, and the GI50 was inactive: 5.9 µM. In the case of `Oc1ccc2c(O)cc(-c3ccccc3)nc2c1`, the GI50 is reported as inactive: 31.9 µM. With `C(=NCCN1CCOCC1)=NC1CCCCC1` the GI50 was inactive: > 100 µM. `COC(=O)C1(CCC(=O)N(C)c2ccccc2)NNC2C(=O)N(c3ccccc3)C(=O)C21` (centres undefined) was tested, and the GI50 was inactive: > 10 µM. In the case of `CC(=O)O[C@H]1CC(C)(C)C(=C=C/C(C)=C/C=C/C=C/C=C(C)/C=C2C=C(/C=C/[C@@]34O[C@]3(C)C[C@@H](O)CC4(C)C)C(=O)O/2)[C@](C)(O)C1`, the GI50 is reported as inactive: 19.6 µM. With `CS(=O)(=O)c1nc(-c2cc3c(c(S(C)(=O)=O)n2)CCCC3)cc2c1CCCC2` the GI50 was inactive: > 100 µM. With `O=S(=O)(O)c1cccc2ccc(O)c(/N=N\c3ccc(S(=O)(=O)c4ccc(/N=N/c5c(O)ccc6cccc(S(=O)(=O)O)c56)cc4)cc3)c12` the GI50 was inactive: > 100 µM. With `CCOc1ccc(NC(=O)CC2C(=O)Nc3ccccc3S2(=O)=O)cc1` (centres undefined) the GI50 was inactive: > 100 µM. In the case of `CCN(CCO)CC1CCCC2CCCCC21` (centres undefined), the GI50 is reported as inactive: > 100 µM. With `Nc1c(-c2ccc(Cl)c(Cl)c2)c2ccc([N+](=O)[O-])cc2c(=O)n1-c1nc2ccccc2s1` the GI50 was active: 0.438 µM. With `CCOC(=O)C(C/C=C/CO)N(C)C(=O)OC(C)(C)C` (centres undefined) the GI50 was inactive: > 100 µM. With `Oc1ccc2ccccc2c1OCc1nnc(CCCCCCCCc2nnc(COc3c(O)ccc4ccccc34)o2)o1` the GI50 was inactive: > 100 µM. In the case of `CCOC(=N)CC(=O)Nc1ccccc1`, the GI50 is reported as inactive: 36.9 µM. `NC(=O)CCC(Nc1c2ccccc2nc2ccccc12)C(=O)O` (centres undefined) was tested, and the GI50 was inactive: > 100 µM. In the case of `COc1ccc(P2(=S)Oc3ccc(C(c4ccccc4)(c4ccccc4)c4ccccc4)cc3O2)cc1` (centres undefined), the GI50 is reported as inactive: 14.9 µM. For `CCOC(=O)c1c(N2CCCC2)[nH]c(=O)c(C(c2c(O)c(C(=O)OCC)c(N3CCCC3)[nH]c2=O)C(C)C)c1O`, the GI50 was inactive: > 100 µM. With `Cc1cc2c(=O)cc(-c3ccncc3)oc2c(C(N)=O)c1C` the GI50 was inactive: > 100 µM. With `CC(=O)NC(C)(C)C1CCC(C)=C(c2ccccc2)C1` (centres undefined) the GI50 was inactive: > 100 µM. In the case of `CN(C)CCNc1ncnc2[nH]c(-c3ccc4ccccc4c3)nc12`, the GI50 is reported as inactive: > 100 µM. With `COc1cccc(/C(Cl)=C(\C=O)c2cccc(OC)c2)c1` the GI50 was inactive: 12.1 µM. In the case of `O=P1(Oc2ccccc2)C(c2ccccc2)C(c2ccccc2)=NN1c1ccccc1` (centres undefined), the GI50 is reported as inactive: 24.9 µM. For `S=c1[nH]c(=S)c2nnn(-c3ccccc3)c2[nH]1`, the GI50 was inactive: > 100 µM. In the case of `CCOC(=O)C1=C(C)N(Cc2ccccc2)C2(O)C=CC(O)=C3C(=O)c4ccccc4C(=O)C312` (centres undefined), the GI50 is reported as inactive: 14.6 µM. For `Cc1cc2c(cc1C)[n+]([O-])c(C(=O)C/C(=N/NC(=O)c1ccccc1O)C(=O)Nc1ccccc1C(C)C)c(C)[n+]2[O-]`, the GI50 was inactive: > 100 µM. `O=C(Nc1cccc(NC(=O)c2cc(=O)c3ccccc3o2)n1)c1cc(=O)c2ccccc2o1` was tested, and the GI50 was inactive: 15 µM. `C=C(C)[C@H]1CC(=O)[C@@]2(C)C[C@H]3O[C@]3(C)CC/C=C(\C)CC[C@H]12` was tested, and the GI50 was inactive: 73.6 µM. For `COC(=O)CNC(=O)C(Cc1ccccc1)NC(=O)c1ccc(-c2ccc(Cl)cc2Cl)o1` (centres undefined), the GI50 was inactive: 23.1 µM. For `CC1=CC(O)C(C(O)(C(F)(F)F)C(F)(F)F)C(C)(C)C1` (centres undefined), the GI50 was inactive: > 10 µM. `Cc1nc2ccc(Br)cc2c(=O)n1-c1ccc(NC2OCC(O)C(O)C2O)cc1` (centres undefined) was tested, and the GI50 was inactive: > 100 µM. In the case of `Cn1c(-c2c(C3=CC(=O)N(c4ccccc4)C3=O)c3ccccc3n2C)cc2ccccc21`, the GI50 is reported as inactive: 60.8 µM. For `O=C1C(=O)N(C(=O)c2ccc(Cl)c(Cl)c2)c2ccc(Cl)cc21`, the GI50 was inactive: > 100 µM. In the case of `Cc1n[nH]c(=O)n1-n1cccc1`, the GI50 is reported as inactive: > 100 µM. `COC(=O)c1ccccc1/C=C1\Cc2cc(C)c(C)cc2C1=O` was tested, and the GI50 was inactive: > 100 µM. `COc1ccc(NC(=O)CC(=O)N2N=C(N3CCCCC3)CC2c2ccccc2)cc1` (centres undefined) was tested, and the GI50 was inactive: > 100 µM. In the case of `CC1=C2C(c3ccccc3)(c3ccccc3)C3C=CC2(C=N3)N(C(=O)NC2CCCCC2)C1=O` (centres undefined), the GI50 is reported as inactive: 18.8 µM. With `NC(=S)N/N=C(\CC1OC(=O)c2ccccc21)c1ccc(Cl)cc1` (centres undefined) the GI50 was inactive: 41.4 µM. With `Nc1nc(Cl)c(N)c(NCC2(CO)CCC2)n1` the GI50 was inactive: > 100 µM. For `CCC1=NC(C(F)(F)F)(C(F)(F)F)N=C(N2CCOCC2)O1`, the GI50 was inactive: > 100 µM. `N#Cc1ccc(OCCSCCCCCCCCCCSCCOc2ccc(C#N)cc2)cc1` was tested, and the GI50 was inactive: > 100 µM. `Cn1c(C2CC(C)(C)c3c2c2ccccc2n3C)cc2ccccc21` (centres undefined) was tested, and the GI50 was inactive: > 304 µM. In the case of `COc1ccccc1Nc1nc(N)nc(N)c1N=O`, the GI50 is reported as inactive: > 100 µM. With `C/C(=N\NC(=O)CC(=O)Nc1ccc(C)cc1)c1cc2ccccc2oc1=O` the GI50 was inactive: > 100 µM. With `CC(=O)C1=C(C)N2C(=NC3=C(CCc4ccccc43)C2c2ccc(F)cc2)S1` (centres undefined) the GI50 was inactive: > 100 µM. For `C[C@]12CCC3[C@@H](CC[C@@H]4c5nonc5CC[C@]34C)C1CC[C@@H]2O` (some centres undefined), the GI50 was inactive: 69 µM. For `O=C(N/N=C/c1ccc(Cl)cc1)c1ccccc1Nc1ccccc1C(=O)N/N=C/c1ccc(Cl)cc1`, the GI50 was inactive: > 100 µM. `CC(=O)N1[C@H](C(=O)O)CS[C@H]1c1ccc(F)cc1` was tested, and the GI50 was inactive: > 100 µM. For `Clc1cc(Br)c2c3c(c(Br)cc(Cl)c13)C(Br)=C2Br`, the GI50 was inactive: 81.3 µM. `COc1ccc2c(ccc3c(COC(=O)NC(C)C)c(COC(=O)NC(C)C)n(C)c32)c1` was tested, and the GI50 was inactive: 20.4 µM. With `CCC1(N=[N+]=[N-])C(=O)Nc2cc(C)ccc2C1=O` (centres undefined) the GI50 was inactive: > 100 µM. For `O=C(CCCCCCCCC(=O)N1C(=O)CC(=O)N(c2cccc(Cl)c2)C1=S)N1C(=O)CC(=O)N(c2cccc(Cl)c2)C1=S`, the GI50 was inactive: 26.9 µM. For `CC#CC1C(OC(=O)c2ccccc2)CCCC1(CI)N=[N+]=[N-]` (centres undefined), the GI50 was inactive: > 100 µM. `COc1ccc2cc3n(c2c1)CCc1cc(OC)c(OC)cc1-3` was tested, and the GI50 was inactive: > 100 µM. For `COc1ccc(CCn2nccc2C)cc1`, the GI50 was inactive: > 100 µM. For `SC1=NNC2(C(Cl)=N1)c1ccccc1-c1ccccc12`, the GI50 was inactive: > 10 µM. With `CC(=O)/C(=N\O)C(=O)NCc1ccccc1` the GI50 was inactive: > 100 µM. In the case of `O=C1c2ccccc2C(=O)N1CCN(CCN1C(=O)c2ccccc2C1=O)Cn1cccn1`, the GI50 is reported as inactive: > 100 µM. With `CC(C)(C)c1cc(C2=NN(c3ccccc3)C(c3ccccc3)C2)cc(C(C)(C)C)c1O` (centres undefined) the GI50 was inactive: > 100 µM. `NC(=S)c1cccc(C2Nc3ccccc3O2)c1` (centres undefined) was tested, and the GI50 was inactive: > 100 µM. For `CC1(C)CN=C(Nc2cccc(C(F)(F)F)c2)S1`, the GI50 was inactive: > 100 µM. In the case of `Cc1ccc2nc(-c3ccccc3)cc(=O)n2c1`, the GI50 is reported as inactive: > 100 µM. In the case of `CCCCNC1=C(C(=O)OCC)/C(=N/NC(=O)c2ccccc2O)CO1`, the GI50 is reported as inactive: 19.5 µM. For `CC(=O)NC1=C(NCCCl)C(=O)c2ccccc2C1=O`, the GI50 was inactive: 56.6 µM. `CCN(CC)C(=O)CC12CCCCC1=Nc1ccccc12` (centres undefined) was tested, and the GI50 was inactive: > 100 µM. In the case of `O=C(O)CN1CCNCCN(CC(=O)O)CCN(CC(=O)O)CCNCC1`, the GI50 is reported as inactive: 97.5 µM. For `O=C(Nc1ccc(Cl)cc1Cl)C1C(=O)OC2(CCCCC2)OC1=O`, the GI50 was inactive: 10.7 µM. With `O=S1OC(c2ccccc2)(c2ccccc2)C(c2ccccc2)(c2ccccc2)O1` the GI50 was inactive: > 100 µM. In the case of `O=C1N[C@@H]2O[C@H](CNC(=O)c3cc(Br)c[nH]3)C[C@]2(O)N1.O=C1N[C@H]2O[C@H](CNC(=O)c3cc(Br)c[nH]3)C[C@@]2(O)N1`, the GI50 is reported as inactive: > 100 µM. With `Cn1ccnc1Cn1cc(-c2cccc(-c3cn[nH]c3)c2)cn1` the GI50 was inactive: > 100 µM. For `Cn1c2ccccc2n2c3ccccc3c(=S)c(C#N)c12`, the GI50 was inactive: > 100 µM. With `CSCCC(C(=O)O)N(C)C` (centres undefined) the GI50 was inactive: > 100 µM. For `O=c1c2ccccc2nc(N/N=C/c2ccc([N+](=O)[O-])cc2)n1-c1ccccc1`, the GI50 was inactive: 31.1 µM. `O=C1CS[C@@](CC(c2ccc(Cl)cc2)c2ccc(Cl)cc2)(c2ccc(Cl)cc2)N1` was tested, and the GI50 was inactive: 45.1 µM. `O=C(O)C12C3CCCC1C2CC3` (centres undefined) was tested, and the GI50 was inactive: > 100 µM. `CC(=O)N1CC(=O)N2C(=O)/C(=C/c3ccc(Cl)cc3)N=C12` was tested, and the GI50 was inactive: > 100 µM. In the case of `O=C(c1ccccc1)C(c1ccccc1)C1(O)C(=O)Nc2ccccc21` (centres undefined), the GI50 is reported as inactive: > 100 µM. With `CC(=O)C1=C(C)N(c2ccc(C)cc2)C2(O)C=CC(=O)C3C(=O)N(c4ccccc4)C(=O)C132` (centres undefined) the GI50 was inactive: 18.5 µM. For `CC(C)CC(=O)NC(Nc1ccc(S(=O)(=O)Nc2ncccn2)cc1)(C(F)(F)F)C(F)(F)F`, the GI50 was inactive: > 100 µM. For `COc1cc(O)c(C(=O)/C=C/c2ccc(OC)c(OCc3ccccc3)c2)c(OC)c1`, the GI50 was inactive: 4.43 µM. In the case of `CCc1cccc(C)c1NC(=O)CC(=O)NNC(N)=S`, the GI50 is reported as inactive: > 100 µM. `CCCN1CC=CCC1` was tested, and the GI50 was inactive: > 100 µM. For `Nc1c(S(=O)(=O)O)cc(S(=O)(=O)O)c2ccc(/N=N/c3ccc(/C=C/c4ccc(/N=N/c5ccc6c(S(=O)(=O)O)cc(S(=O)(=O)O)c(N)c6c5O)cc4S(=O)(=O)O)c(S(=O)(=O)O)c3)c(O)c12`, the GI50 was inactive: > 100 µM. In the case of `CCCCCCCCCC(=O)NC(Cc1ccc(O)cc1)C(=O)NCCCNCCCCNCCCNC(=O)[C@@H](N)CCCN=C(N)N` (some centres undefined), the GI50 is reported as inactive: 84.3 µM. In the case of `CSc1ccc2c(cc1=O)[C@@H](NC(=O)c1ccc(Cl)cc1)CCc1cc(O)c(O)c(O)c1-2`, the GI50 is reported as inactive: 65.9 µM. With `C=C(C)C(=O)OC1CCC2(C)C(CCC3C2CCC2(C)C(c4ccc(=O)oc4)CC4OC432)C1` (centres undefined) the GI50 was inactive: 7.35 µM. In the case of `C[n+]1c(-c2ccc(NC(=O)c3ccc(C(=O)Nc4ccc(-c5cn6ccccc6[n+]5C)cc4)cc3)cc2)cn2ccccc21`, the GI50 is reported as inactive: > 100 µM. With `NCCCCN(CCCN)C(=O)OCc1ccccc1` the GI50 was inactive: > 100 µM. For `CCCCCCNC(=O)c1cc(CCc2cc(O)ccc2O)ccc1O`, the GI50 was inactive: 9.84 µM.
